The source of these data is patent publication US20240101686A1 (SIMCERE ZAIMING PHARMACEUTICAL, published 2024).

Assay [1] deals with T1, murine EGFR protein (murine, UniProt Q01279 25-647).
T1 construct: Bought protein

Assay [2] concerns the target T1, murine EGFR protein. The source holds these as a separate data set.
For assay [3], the target named is T1, murine EGFR protein. The source holds these as a separate data set.
For assay [4], the target named is T1, murine EGFR protein. This is another data set of the same source.
In assay [5] the target is T1, murine EGFR protein. This is another data set of the same source.
Assay [6] has as its target T1, murine EGFR protein. The source holds these as a separate data set.
Assay [7] concerns the target T1, murine EGFR protein. This is another data set of the same source.
Assay [8] concerns the target T1, murine EGFR protein. This is another data set of the same source.
For assay [9], the target named is T2, Her2 protein (human, UniProt P04626 in part).
T2 construct: Bought protein; also called human Her2 protein

The target of assay [10] is T2, Her2 protein. The source holds these as a separate data set.
Assay [11] has as its target T2, Her2 protein. This is another data set of the same source.
For assay [12], the target named is T2, Her2 protein. This is another data set of the same source.
Assay [13] addresses T2, Her2 protein. The source holds these as a separate data set.
Assay [14] deals with T2, Her2 protein. The source holds these as a separate data set.
Assay [15] deals with T2, Her2 protein. This is another data set of the same source.
Assay [16] deals with T2, Her2 protein. This is another data set of the same source.
The target of assay [17] is T3, human EGFR protein (human, UniProt P00533 in part).
T3 construct: also called human EGFR-His; human EGFR-ECD protein; not shown: His tag

The next assay deals with T4, monkey EGFR protein (cynomolgus monkey, UniProt P55245 in part (rhesus entry)).
T4 construct: Bought protein (SB 90285-C08H); also called cynomolgus monkey EGFR

The target in assay [18] is T5, human EGFRvIII-His tag protein (human, UniProt P00533 in part).
T5 construct: Made in HEK293E, purified on nickel column; also called human EGFRvIII protein; not shown: His tag

Assay [19] has as its target T3, human EGFR protein. The source holds these as a separate data set.
Assay [20] has as its target T6, human EGFRvIII-His tag protein (extracellular domain Leu25-Ser378) (human, UniProt P00533 in part).
T6 construct: Made in HEK293E cells, purified on nickel column; also called human EGFRvIII protein; EGFRvIII protein; not shown: His tag

The target of assay [21] is T6, human EGFRvIII-His tag protein …. The source holds these as a separate data set.
For assay [22] the target is unchanged. This is another data set of the same source.
For assay [23] the target is unchanged. The source holds these as a separate data set.
For assay [24] the target is unchanged. The source holds these as a separate data set.
Assay [25] has the same target. The source holds these as a separate data set.
For assay [26] the target is unchanged. This is another data set of the same source.
Assay [27] has the same target. This is another data set of the same source.

Read-outs that look alike come from different tables or passages of the source.

B1: S008-NB149-64 VHH-Fc antibody (Fc fusion)
chain: EVQVVESGGGLVQPGGSLRLSCVASGIIFSSYAMGWYRQAPGKQRELVARISSGGGLYYEDPVKGRFTISRDNARNTVYLQMSSVKPEDTAVYYCNVVPYTPGYWGQGTQVTVSS[human IgG1 Fc with changes not shown]
Consider B1, for which the OD450 with murine EGFR protein [1] was found to be 1.86; with murine EGFR protein [2], 1.96; in the assay with murine EGFR protein [3] it was 1; with murine EGFR protein [4], 1.77; in the assay with murine EGFR protein [5], 0.23; in the assay with murine EGFR protein [6], 0.08. Besides, the OD450 in the assay with murine EGFR protein [7] and with murine EGFR protein [8] was 0.05 throughout.

B2: S008-NB148-52 VHH-Fc antibody (Fc fusion)
chain: EVQLVESGGGLVQAGGSLRLSCAASGFRIINDRMAWYRQAPGKQREAVASIDYAGSTTYAEFVKGRFTISRDNTKNMVTLQMNNLEPEDTAVYYCNTAPIARFRGQGTQVTVSS[human IgG1 Fc with changes not shown]
For B2, the OD450 with murine EGFR protein [1] amounted to 2.43; in the assay with murine EGFR protein [2], 2.83; in the assay with murine EGFR protein [3], 1.13; with murine EGFR protein [4], 2.98; in the assay with murine EGFR protein [5], 0.17; in the assay with murine EGFR protein [6] it was 0.06. Also, the OD450 in the assay with murine EGFR protein [7] and in the assay with murine EGFR protein [8] was 0.05 throughout.

B3: S008-NB149-9 (Fc fusion)
chain: QVQLVESGGFVQAGGSLRLSCAASGRTFSKYAMGWFRQAPGKEREFVAAIRWIGGSTYYADSVKGRFTISRDNDKNTLYLQMNSLKPEDTAVYYCAAGYQAYPEPPWEYDYWGQGTQVTVSS[human IgG1 Fc with changes not shown]
notes: Tested as VHH-Fc; order VHH-hinge-Fc inferred
One may read the Kd as the equilibrium constant for the complex coming apart. The koff is a measure of how fast the partners let go of each other. For orientation: kon means the second-order rate constant of association. What is called EC80 is the concentration at which the effect reaches the 80% level. Regarding B3, the OD450 worked out at 0.05 with Her2 protein [9]; 0.12 with Her2 protein [10]; 0.09 in the assay with Her2 protein [11]; 0.16 with Her2 protein [12]; 0.09 in the assay with Her2 protein [13]; 0.11 with Her2 protein [14]. For the same molecule, the OD450 is 0.09 with Her2 protein [15] and 0.18 with Her2 protein [16]. Besides, the Kd was found to be 0.0366 µM with human EGFR protein [17], 0.0135 µM with monkey EGFR protein and 0.0249 µM in assay [18]. The koff stood at 0.00862 s⁻¹ in the assay with human EGFR protein [17], 0.00147 s⁻¹ with monkey EGFR protein and 13.3 s⁻¹ in assay [18]. Besides, the kon was found to be 235000 M⁻¹ s⁻¹ with human EGFR protein [17], 109000 M⁻¹ s⁻¹ with monkey EGFR protein and 5.32e+08 M⁻¹ s⁻¹ in [18]. The same molecule came in with an EC80 with human EGFR protein [19] of 24.5 mg/L.

B4: S008-NB149-9 VHH-Fc antibody (Fc fusion)
chain: QVQLVESGGFVQAGGSLRLSCAASGRTFSKYAMGWFRQAPGKEREFVAAIRWIGGSTYYADSVKGRFTISRDNDKNTLYLQMNSLKPEDTAVYYCAAGYQAYPEPPWEYDYWGQGTQVTVSS[human IgG1 Fc with changes not shown]
As to B4, the OD450 was 0.29 in assay [20]; 0.32 in assay [21]; 0.18 in assay [22]; 0.58 in assay [23]; 0.07 in assay [24]; 0.06 in assay [25]. Besides, the OD450 was 0.06 in assay [26] and 0.11 in assay [27].

B5: S008-NB148-13 VHH-Fc antibody (Fc fusion)
chain: EVQVVESGGGLVQPGGSLRLSCAASDDISSIYTMAWYRQAPGKQRELVALVTPGGGTNYADSVKGRFTISRDNAKNTVYLQMNSLKPEDTAVYYCNARHRVTGFAYWGQGTQVTVSS[human IgG1 Fc with changes not shown]
Take B5: the OD450 in assay [20] worked out at 2.32; in assay [21], 2.38; in [22], 2.05; in assay [23], 2.6; in [24], 0.94; in [25], 0.21. Moreover, the OD450 in [26] came to 0.08; in [27], 0.1.

B6: S008-NB149-20 VHH-Fc antibody (Fc fusion)
chain: EVQVVESGGGLVQPGGSLRLSCAASGSGFTINAMTWYRRAPGKERELVAIITNGGITNYADSVKGRFTISRDNAKSTVYLQMDGLEPEDTAVYYCNIVPPVYWGQGTQVTVSS[human IgG1 Fc with changes not shown]
As for B6, the OD450 amounted to 0.06 with murine EGFR protein [1]; 0.08 with murine EGFR protein [2]; 0.06 with murine EGFR protein [3]; 0.09 in the assay with murine EGFR protein [4]; 0.07 in the assay with murine EGFR protein [5]; 0.06 with murine EGFR protein [6]. In addition, the OD450 with murine EGFR protein [7] was 0.06; with murine EGFR protein [8] it was 0.07.

B7: S008-NB148-9 VHH-Fc antibody (Fc fusion)
chain: EVQLVESGGGLVQAGGSLRLSCAASGSTLSSYAMGWYRQAPGKQRELVAAISSGGGSTNYRDSVKGRFTISRDNAKNTVYLQMNSLKPEDTAVYYCKSTDYGSLFDSWGQGTQVTVSS[human IgG1 Fc with changes not shown]
On to B7, for which the OD450 in assay [20] is 2.32; in [21], 2.47; in [22] it was 1.99; in [23], 2.58; in [24], 0.84; in assay [25], 0.21. Further, the OD450 in assay [26] turned out to be 0.08; in assay [27], 0.06.

B8: S008-NB148-69 VHH-Fc antibody (Fc fusion)
chain: EVQVVESGGGLVQAGGSLRLSCAASTITISSAGVSWYRQAPGKQRELVAIITRGGSTNYADSVKGRFTISRDNAKNTHYLQMYNLKPEDTGIYYCNVVPPTYWGQGTQVTVSS[human IgG1 Fc with changes not shown]
With B8, the OD450 is 2.2 in assay [20]; 2.36 in assay [21]; 1.87 in [22]; 2.53 in [23]; 0.73 in [24]; 0.16 in assay [25]. Further, the figures for the OD450 in assay [26] and in assay [27] were 0.07 and 0.08, respectively.

B9: S008-NB149-60 VHH-Fc antibody (Fc fusion)
chain: QLQLVESGGGLVQPGGSLRLSCAASRSISSINTMTWYRYQGPGKERELVALITLGGTTNYADSVKGRFTISRDDAKNTLYLEMNSLKPEDTAVYYCNAVPPFRWGQGTQVTVSS[human IgG1 Fc with changes not shown]
As to B9, the OD450 turned out to be 0.05 with murine EGFR protein [1]; 0.05 with murine EGFR protein [2]; 0.05 in the assay with murine EGFR protein [3]; 0.07 in the assay with murine EGFR protein [4]; 0.05 in the assay with murine EGFR protein [5]; 0.05 with murine EGFR protein [6]. For the same molecule, the OD450 in the assay with murine EGFR protein [7] and in the assay with murine EGFR protein [8] was 0.05 in each case.
